# In all, about 310,000 compounds went through this assay and about 2,200 (0.71%) showed an effect of 50% or more. The effect is printed as a negative number. This is one part of the list.
# Target: human ether-à-go-go-related gene (hERG) potassium channel (human, UniProt Q12809)
# Test: primary screen, population patch clamp on CHO cells stably expressing hERG
# Chain of human ether-à-go-go-related gene (hERG) potassium channel (Q12809 whole entry, looked up): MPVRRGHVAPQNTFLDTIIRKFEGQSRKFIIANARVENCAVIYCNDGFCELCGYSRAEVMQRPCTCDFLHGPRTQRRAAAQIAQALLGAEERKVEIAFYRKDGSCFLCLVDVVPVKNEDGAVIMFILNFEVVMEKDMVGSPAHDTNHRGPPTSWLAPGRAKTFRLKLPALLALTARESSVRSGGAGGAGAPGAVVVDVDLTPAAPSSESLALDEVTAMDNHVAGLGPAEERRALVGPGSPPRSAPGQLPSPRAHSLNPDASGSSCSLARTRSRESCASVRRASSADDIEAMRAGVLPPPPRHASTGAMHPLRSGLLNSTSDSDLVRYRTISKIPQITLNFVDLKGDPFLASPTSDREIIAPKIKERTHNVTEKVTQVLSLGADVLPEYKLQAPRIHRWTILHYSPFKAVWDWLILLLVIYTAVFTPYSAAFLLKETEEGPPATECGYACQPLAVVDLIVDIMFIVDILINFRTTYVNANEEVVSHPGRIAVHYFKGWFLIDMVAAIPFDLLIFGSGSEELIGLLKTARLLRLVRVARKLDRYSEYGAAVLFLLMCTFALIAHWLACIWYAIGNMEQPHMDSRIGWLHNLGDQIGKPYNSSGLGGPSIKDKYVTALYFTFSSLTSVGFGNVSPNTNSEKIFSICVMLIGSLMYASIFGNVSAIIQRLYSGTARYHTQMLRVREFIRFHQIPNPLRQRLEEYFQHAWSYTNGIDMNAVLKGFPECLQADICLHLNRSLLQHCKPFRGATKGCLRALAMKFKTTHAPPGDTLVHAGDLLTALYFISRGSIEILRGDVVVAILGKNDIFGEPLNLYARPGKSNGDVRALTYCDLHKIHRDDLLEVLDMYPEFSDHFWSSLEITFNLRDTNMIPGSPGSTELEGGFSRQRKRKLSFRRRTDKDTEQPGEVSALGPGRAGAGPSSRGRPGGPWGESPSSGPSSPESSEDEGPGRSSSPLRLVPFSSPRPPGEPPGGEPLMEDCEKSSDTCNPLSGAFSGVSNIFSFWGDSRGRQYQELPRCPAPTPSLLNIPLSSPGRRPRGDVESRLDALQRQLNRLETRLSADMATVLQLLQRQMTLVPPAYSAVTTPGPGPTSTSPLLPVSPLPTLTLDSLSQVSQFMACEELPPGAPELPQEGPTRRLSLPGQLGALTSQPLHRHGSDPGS
row,Compound,"hERG current change (%, negative = inhibition) at 1uM [%]"
1,COCCCN1C(=O)c2ccc(C(=O)NCc3ccccn3)cc2C1=O,4.25
2,COc1cc(NC(=O)c2ccc(C)cc2)c(OC)cc1NC(=O)CN1CCCCC1,-0.012
3,COc1cc(CC(=O)OCC(=O)Nc2ccc3c(c2)OCO3)cc(OC)c1OC,12.3
4,COc1cc(OC)cc(C(=O)NNC(=O)CCC(=O)c2cccs2)c1,10.5
5,O=C(NCc1cccnc1)C(=O)Nc1nccs1,14.7
6,Cc1ccc2[nH]c(C)c(/C=N/Nc3nc4ccccc4s3)c2c1,4.65
7,COc1ccccc1Nc1cc(C(=O)N2CCc3ccccc3C2)c2ccccc2n1,12.6
8,CCOC(=O)C1CCCN(Cc2cc(OC)c(O)c(OC)c2)C1 (stereo not shown),8.1
9,COc1ccc(S(=O)(=O)N(C)CC(=O)Nc2ccc(C(F)(F)F)cc2)cc1Cl,13.6
10,CCSC1(SCC)N=C(N)C2(C#N)C(c3ccccc3)NC3=C(CCC3)C12C#N (stereo not shown),14.4
11,Cn1c(CSCc2ccc(Cl)cc2Cl)n[nH]c1=S,9.71
12,O=C(CNC(=O)c1ccc(Br)cc1)N=Nc1c(O)[nH]c2ccc([N+](=O)[O-])cc12,13.9
13,O=C(OCc1ccc(COC(=O)c2ccc(O)cc2)cc1)c1ccc(O)cc1,12.9
14,COc1cc([N+](=O)[O-])ccc1NC(=S)N1CCN(c2ccccn2)CC1,-5.05
15,O=C(NCCCN1CCOCC1)c1c(F)c(F)c(F)c(F)c1F,17.6
16,CC(C)(C)c1ccc(-c2nnc(SCCC#N)n2C2CCCC2)cc1,9.93
17,CCC/C(=C1/C(=O)CC(C)(C)C(C(=O)OC)C1=O)N1CCCC1 (stereo not shown),-9.52
18,CCOC(=O)c1ccccc1NC(=O)c1c(O)c2ccccc2n(CC)c1=O,13.7
19,O=C(Nc1ccccc1N1CCOCC1)c1cc(Cl)c2c(c1)OCO2,21.6
20,CC(=O)Nc1ccc(C(=O)CCl)cc1,11.4
21,CCCCNC(=O)N1CCN(C(=O)c2ccco2)CC1,0.681
22,CC(C)OP(=O)(OC(C)C)C1(O)C(=O)Nc2ccc(Br)cc21 (stereo not shown),-0.0893

row,Compound,"hERG current change (%, negative = inhibition) at 1uM [%]"
1,O=C1c2ccccc2C(=O)N1CCCCN(C(=O)c1cc([N+](=O)[O-])cc([N+](=O)[O-])c1)c1ccc(Cl)cc1,7.16
2,Cc1ccc(/C(CSc2nccn2-c2ncc(C(F)(F)F)cc2Cl)=N\O)cc1,7.94
3,COc1cccc(OCC(=O)N2CCC3(CC2)CC(=O)c2ccccc2O3)c1,-5.23
4,S=C(NCCN1CCOCC1)Nc1ccc(-c2nc3ccccc3[nH]2)cc1,13.4
5,Cc1ccc(OC(=O)CN2C(=O)c3ccccc3C2=O)cc1C,18.1
6,CCOc1c2ccc(C(=O)NCCc3cccs3)cc2nn1CC,8.71
7,COC(=O)c1nn2c(C(F)(F)F)cc(-c3ccc(Br)o3)nc2c1Br,9.88
8,C=C(C)C(=O)NNc1ccccc1,14.4
9,Cn1c(COc2ccccc2)nnc1SCCSc1nnc(COc2ccccc2)n1C,-3.39
10,Cc1ccc(-c2nsc3c(N4CCC(C(N)=O)CC4)ncnc23)cc1,10.6
11,COc1cc(C(=O)Oc2c(OC)cc(C(=S)N3CCOCC3)cc2OC)cc(OC)c1OC,15
12,Cc1nc2cc(N3CCCCC3)c(NC(=O)c3ccncc3)cc2c(=O)n1Cc1ccc(Cl)cc1,18.9
13,O=S(=O)(c1cccc2c(S(=O)(=O)N3CCCC3)cccc12)N1CCCC1,-2.37
14,O=C(C1CCC1)N1CCN(S(=O)(=O)c2ccc(Br)cc2Cl)CC1,8.55
15,Cc1cccc(OP(=O)(NCc2ccccc2)Oc2cccc(C)c2)c1,5.39
16,Cc1ccc(S(=O)(=O)N2CCOC2CNC(=O)C(=O)NCc2ccccc2)cc1 (stereo not shown),10.1
17,O=C(NNC(=O)c1ccc(Cl)c(S(=O)(=O)Nc2ccc(Cl)cc2)c1)c1ccc(=O)[nH]c1,14.5
18,O=C(Nc1ccccc1)c1ccccc1OCC(O)CN1C(=O)c2ccccc2S1(=O)=O (stereo not shown),6.06
19,O=c1[nH][nH]c(C(F)(F)F)c1C=Nc1ccccc1,12.5
20,O=C(NCCN1CCOCC1)c1ccc(NC(=O)C2COc3ccccc3O2)cc1 (stereo not shown),13.7
21,O=C(C1CCCN(S(=O)(=O)c2ccc(Cl)cc2)C1)N(Cc1cccs1)C1CC1 (stereo not shown),8.28
22,O=C1CCC(C(=O)NCCCn2ccnc2)N1 (stereo not shown),12.4

row,Compound,"hERG current change (%, negative = inhibition) at 1uM [%]"
1,COc1cc2c(cc1OC)CN(C(=O)Nc1ccccc1)CC2,14.9
2,O=C(CS(=O)(=O)c1ccccc1)N1CCc2ccccc21,1.57
3,O=C(CSc1nnc(-c2cccnc2)o1)NNC(=O)c1ccc(Br)cc1,10.5
4,O/N=C(\c1ccc(Cl)cc1)c1ncc(C(F)(F)F)cc1Cl,14.2
5,O=C(OCc1ccccc1)C1CCCN1C(=O)c1cccs1 (stereo not shown),1.6
6,COc1ccc(/C=C(\NC(=O)c2ccc([N+](=O)[O-])cc2)C(=O)NCCCN2CCOCC2)cc1,-41
7,CCCCn1c(SCC(=O)NCc2ccc(OC)c(C(=O)O)c2)nc2cc(S(N)(=O)=O)ccc21,18.3
8,COc1ccc(NC(=O)c2cc3c(CO)cnc(C)c3oc2=Nc2cc(OC)cc(OC)c2)cc1,22.5
9,CCc1ccc(NC(=O)C(C)OC(=O)c2cc(=O)[nH]c3ccc(S(=O)(=O)Nc4ccc(F)cc4)cc23)cc1 (stereo not shown),7.45
10,CCOC(=O)CSc1nnc(-c2c[nH]c3ccccc23)o1,9.76
11,O=[N+]([O-])c1ccc(N2CCN(c3cccc(Cl)c3)CC2)cn1,-59.8
12,CCc1ccc(CNCCc2ccccc2F)cc1,6.1
13,Cc1cc(OC(=O)c2ccccc2C(F)(F)F)c([N+](=O)[O-])c(=O)[nH]1,7.25
14,O=C(NCCc1ccncc1)Nc1ccccc1,-1.1
15,CCOc1cccc(C2CC(=O)Nc3cc(OC)c(OC)cc32)c1 (stereo not shown),7.06
16,Cn1c(N)c(C(=O)COC(=O)c2ccc(Cl)nc2)c(=O)n(C)c1=O,19.6
17,COc1ccc(S(=O)(=O)N2CCC(Cc3ccccc3)CC2)cc1NC(C)=O,14.1
18,Cc1cc(-c2ccc(S(=O)(=O)N3CCN(c4cccc(C)c4C)CC3)s2)on1,3.15
19,CCc1nnc(NC(=O)Cc2ccc(OCc3c(C)noc3C)cc2)s1,11.3
20,CC(=O)NS(=O)(=O)c1ccc(NC(=S)NC(=O)C(C)(C)C)cc1,-7.65
21,CCc1ccccc1OCC(=O)Nc1ccc(C)c(S(=O)(=O)N2CCCCCC2)c1,2.53
22,Cc1ccc(CNC(=O)c2cncc(Br)c2)cc1,13.1

row,Compound,"hERG current change (%, negative = inhibition) at 1uM [%]"
1,CC(=O)/C(C#N)=C1\NC(=O)C(Cc2ccccc2Cl)S1 (stereo not shown),4.8
2,CCCC(=O)NC(=S)Nc1ccc(N2CCOCC2)c(Cl)c1,-12.1
3,Cn1cccc1C1C(C#N)=C(N)OC2=C1C(=O)CC(C)(C)C2 (stereo not shown),7.78
4,O=C(Cc1ccc(Cl)c(Cl)c1)Nc1cccc2ncccc12,10.5
5,O=c1c2cnn(-c3ccccc3)c2nnn1Cc1ccccn1,-0.73
6,COC(=O)c1c(-c2c(Cl)cccc2Cl)noc1NC(=O)NN1CCOCC1,8.64
7,CCC(Sc1nnnn1-c1ccccc1)C(=O)NC(C)c1ccccc1 (stereo not shown),9.25
8,CC1(c2nnc(-c3ccccc3)o2)CC(c2ccc([N+](=O)[O-])cc2)=NO1 (stereo not shown),9.14
9,Clc1ccc(-n2nnnc2-c2ccccc2)cc1,9.83
10,CCN1CCN(C(=O)CN(c2cccc(Br)c2)S(=O)(=O)c2ccccc2)CC1,0.897
11,COc1ccc(-n2c(C)c(C)c3c(NCCN(C)C)ncnc32)cc1,1.86
12,COc1cc(CC(=O)OCC(=O)Nc2cc(S(=O)(=O)N3CCCC3)ccc2Cl)cc(OC)c1OC,2.72
13,CSc1nc2c(c(=O)[nH]1)C(c1ccc(Cl)cc1)CC(=O)N2 (stereo not shown),20.4
14,COC(=O)c1cc(-c2ccc(C)cc2)n[nH]1,4.05
15,O=C(/C(=C/O)N=Nc1ccccc1)c1ccco1,17.8
16,CC(=O)Oc1ccc(C(=O)N2c3ccccc3NC(=O)C2C)cc1 (stereo not shown),16.4
17,Cc1ccc2c(c1)C(c1ccccc1)=NCC(=O)N2C,8.53
18,O=C(CCNC(=O)c1ccc(Cl)cc1)Nc1c(F)c(F)cc(F)c1F,12.8
19,c1nc(Nc2ccc(N3CCOCC3)cc2)c2ccsc2n1,8.37
20,COc1ccc(N=N/C(=C\O)C(=O)c2ccco2)cc1,8.78
21,COCCCNC(=O)Cn1c(=O)n(CC(=O)N2CCCCC2)c(=O)c2sccc21,9.18
22,COCCNC(=O)C1CC(c2cccc([N+](=O)[O-])c2)=NO1 (stereo not shown),17.3
